The structures appear in SMILES notation. Values joined by “and” are separate entries in the source; they are usually repeats but may differ in a detail not shown here. Equal values may be shown once. Among all 2,000 compounds or so, about 45 (2%) were called active.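 Rule for the calls: active = inhibition above the mean of all tested compounds plus 3 SD (cut at about 49% in these data); inactive = the rest.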 The list shows a part of the results. Where a SMILES comes first, the peptide text is derived from it. The star is where a group is joined. Boc = CC(C)(C)OC(=O)*

The test addresses Perilipin-5 (Homo sapiens) + 1-acylglycerol-3-phosphate O-acyltransferase ABHD5 (Homo sapiens) (UniProt Q00G26+Q8WTS1). Description: blockers of ABHD5 binding to perilipin-5 – cell lysate, split luciferase complementation, luminescence, NIH validation set, pilot screen (AID 493035).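 Note: 0% = DMSO only wells while the 100% control is not stated.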 Particulars: split G. princeps luciferase complementation, lysates, 4 h; at 7.9 µM, hits give high values.
Sequence of UniProt Q00G26 (Q00G26 whole entry, looked up): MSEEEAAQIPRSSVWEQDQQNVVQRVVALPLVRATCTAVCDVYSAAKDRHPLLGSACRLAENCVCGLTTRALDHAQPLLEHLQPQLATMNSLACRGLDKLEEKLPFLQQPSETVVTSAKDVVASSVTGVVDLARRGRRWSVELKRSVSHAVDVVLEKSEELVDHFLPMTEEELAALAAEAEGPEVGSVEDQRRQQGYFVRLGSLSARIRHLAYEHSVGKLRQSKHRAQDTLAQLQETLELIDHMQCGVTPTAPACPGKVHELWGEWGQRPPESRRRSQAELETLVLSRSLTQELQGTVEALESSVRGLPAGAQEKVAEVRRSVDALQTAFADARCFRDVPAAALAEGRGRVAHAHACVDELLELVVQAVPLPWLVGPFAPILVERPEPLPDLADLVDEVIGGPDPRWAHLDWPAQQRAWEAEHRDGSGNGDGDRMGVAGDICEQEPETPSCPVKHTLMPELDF
Sequence of UniProt Q00G26 (Q8WTS1 whole entry, looked up): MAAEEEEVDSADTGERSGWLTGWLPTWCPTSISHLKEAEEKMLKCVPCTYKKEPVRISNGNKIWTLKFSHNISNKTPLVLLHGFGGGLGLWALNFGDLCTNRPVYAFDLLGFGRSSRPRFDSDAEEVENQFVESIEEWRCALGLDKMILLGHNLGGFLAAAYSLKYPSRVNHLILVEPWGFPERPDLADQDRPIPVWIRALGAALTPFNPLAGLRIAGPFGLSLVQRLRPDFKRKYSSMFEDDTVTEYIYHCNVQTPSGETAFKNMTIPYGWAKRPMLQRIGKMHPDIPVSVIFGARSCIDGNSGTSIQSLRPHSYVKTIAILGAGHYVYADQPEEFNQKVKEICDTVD
For orientation: inhibition means the drop in the measured response relative to a control, in per cent. In the case of `O=C(/C=C/c1ccc2c(c1)OCO2)NCc1ccc(F)cc1`, the inhibition was inactive: 1.71%.

On to `Cc1ccc2c(c1)C(C)(C)[C@]1(C)NC(=O)CCN21`, for which the inhibition was inactive: 5.4%. On to `CC(=O)OC1c2c(ccc3ccc(=O)oc23)OC(C)(C)C1OC(=O)CC(C)C` (stereo not drawn), for which the inhibition is inactive: 2.15%. In the case of `CCOC(=O)c1c(C)oc2c1C(=O)c1ccccc1C2=O`, the inhibition is inactive: -2.56%. With `O=C(CN1CC[n+]2c(-c3cccs3)csc21)c1ccc(Br)cc1`, the inhibition is active: 51.8%. With `Cc1ccc(C(CC(=O)NCc2ccco2)c2ccc(OC(C)C)cc2)cc1` (stereo not drawn), the inhibition is inactive: 34.6%. For the compound `Cc1ccccc1NC(=O)C1c2ccccc2Oc2ccccc21`, the inhibition was inactive: -10.3%. Regarding `Cc1cccc(CN2CCN(C(c3ccccc3)c3ccc(Cl)cc3)CC2)c1` (stereo not drawn), the inhibition was inactive: -3.56%. As for `COC1CCCCC1Nc1ccc(C)c(C)c1` (stereo not drawn), the inhibition was inactive: 2.37%. Regarding `COCCn1c(/C=C/c2ccccc2)nc2ccccc21`, the inhibition was inactive: 5.06%. In the case of `CC1CNCCN1S(=O)(=O)c1cccc2cnccc12` (stereo not drawn), the inhibition is inactive: 5.22%. Take `CCOC(=O)C1=C[C@]2(CC)CCCN3CCc4c(n1c1ccccc41)[C@@H]32`: the inhibition is inactive: -7.61%. To `CC(NC(=O)c1ccc(OC2CCN(Cc3ccccn3)CC2)cc1)c1ccccc1` (stereo not drawn) belongs inactive: -13.7%.

Turning to `COc1ccc(C)cc1S(=O)(=O)Nc1ccc(F)cc1`, the inhibition is inactive: 0.68%. In the case of `O=C(OCCN1CCCC1)C1(c2ccccc2)CCCC1`, the inhibition is inactive: -13.1%. Consider `COC(=O)c1ccc(NC(=O)C23CCC(C)(C(=O)O2)C3(C)C)cc1` (stereo not drawn), for which the inhibition is inactive: -0.21%. As to `CC(C)=CCCC(C)CN1CCC(N2CCC(C(=O)N3CCCC3)CC2)CC1` (stereo not drawn), the inhibition was inactive: -12.9%.

For the compound `C[C@]12CC[C@@H]3c4ccc(O)cc4CC[C@H]3[C@@H]1CCC2=O`, the inhibition was inactive: -0.89%. The same measure for `OC(C#CCN1CCCC1)(c1ccccc1)c1cccnc1` (stereo not drawn): inactive: 8.65%; for `CN=C1c2cc3cc(OC)ccc3n2CCN1C`: inactive: -0.31%. For `CN1[C@@H](CC(=O)c2ccccc2)CCC[C@H]1C[C@H](O)c1ccccc1`, the inhibition is inactive: 4.57%. `c1ccc2[nH]c(-c3cscn3)nc2c1`: the inhibition is inactive: -15.1%.

In the case of `CCC(C)NCCOCCOc1ccc(Cl)cc1Br` (stereo not drawn), the inhibition is inactive: -7%. Consider `COc1cc(NC(=S)NN2CCN(C)CC2)cc(OC)c1OC`, for which the inhibition was inactive: -3.64%. The same measure for `CC1=NN(C(=O)c2ccc(Br)cc2)C(O)(c2ccccc2)C1` (stereo not drawn): inactive: 5.38%; for `CC12CC(c3ccccc3O1)C(C(=O)N1CCOCC1)C(=O)N2` (stereo not drawn): inactive: -15.3%; for `O=C(c1ccc(Cl)cc1)C1CCCN(Cc2ccc(Oc3ncccn3)cc2)C1` (stereo not drawn): inactive: 4.37%. To `O=C(OCCNC(=O)c1ccc2ccccc2n1)c1ccc(F)cc1` belongs inactive: 4.32%; to `COc1ccccc1C(O)c1nccn1C` (stereo not drawn), inactive: -0.96%.

Consider `COc1ccc2c(c1)[N+](C)(C)C(C)(C)C=C2C`, for which the inhibition is inactive: -0.6%. Take `C#CCN1C(=O)C(O)(c2c(C)[nH]c3ccccc23)c2ccccc21` (stereo not drawn): the inhibition was inactive: -2.46%.

Take `Cn1c(=O)c2[nH]cnc2n(C)c1=O`: the inhibition was inactive: 4.42%. The same measure for `CN(C)CCC=C1c2ccccc2CCc2ccccc21`: inactive: -18.3%. For the compound `Cc1ccnc2c1NC(=O)c1cccnc1N2C1CC1`, the inhibition was inactive: -6.42%. With `C#C[C@]1(O)CC[C@H]2[C@@H]3CCc4cc(OC5CCCC5)ccc4[C@H]3CC[C@@]21C`, the inhibition was inactive: -6.78%.

On to `COc1ccc(CN2CCC(=O)NC2=O)cc1`, for which the inhibition is inactive: -1.7%. The same measure for `COc1cc(C(=O)OCCn2c(=O)c3c(ncn3CCN(C)C)n(C)c2=O)cc(OC)c1OC`: inactive: -2.69%; for `COc1ccc(-c2c[n+](CC(=O)OC3CC(C)CCC3C(C)C)c3n2CCC3)cc1` (stereo not drawn): inactive: 11.4%; for `O=C(COc1ccccc1)N1CCN(c2ccccc2)CC1`: inactive: -2.97%. On to `COC(=O)c1cc(OC)c(OC)cc1NC(=O)Nc1ccc(OC)cc1OC`, for which the inhibition was inactive: -2.97%. For `COc1ccc(C2C(=O)c3ccccc3C2=O)cc1`, the inhibition is inactive: -1.24%. To `Cc1cccc(C)c1NC(=O)C1CCCCN1C` (stereo not drawn) belongs inactive: -9.47%. Turning to `CCOC(=O)c1c(C)oc2cc(Br)c(OC(C)C(=O)OCC)cc12` (stereo not drawn), the inhibition was inactive: -0.05%. With `Nc1ccc(S(N)(=O)=O)cc1N`, the inhibition was inactive: 14.3%. To `Cc1ncc([N+](=O)[O-])n1CC(O)CCl` (stereo not drawn) belongs inactive: 2.35%; to `CN1C(C(=O)Nc2ccccn2)=C(O)c2sccc2S1(=O)=O`, inactive: 2.19%; to `CCc1ccc2oc(=O)cc(CN3CCC(C)CC3)c2c1`, inactive: -10.3%.

Regarding `CCOC(=O)C1=C(N)Oc2c(oc(CO)cc2=O)C1c1ccc(F)c(F)c1` (stereo not drawn), the inhibition was inactive: -8.25%. In the case of `C[C@]12CC[C@H]3C(=CCc4cc(O)ccc43)[C@@H]1CCC2=O`, the inhibition was inactive: 2.32%. The same measure for `CC(C)COCC1CC2(CC(C)(c3csc(N)n3)OC2=O)C(=O)O1` (stereo not drawn): inactive: -11.5%; for `COc1c(C)cc(C(=O)C2CCCN(Cc3ccc(Oc4ncccn4)cc3)C2)cc1C` (stereo not drawn): inactive: -0.46%; for `COc1ccc(CNCCC(c2ccc(F)cc2)c2ccc(OC(C)C)cc2)cc1OC` (stereo not drawn): inactive: -5.38%. `CCOC(=O)C1C2C=CC3(CN(c4ccc(Cl)c(F)c4)C(=O)C13)O2` (stereo not drawn): the inhibition is inactive: -7.19%.

With `O=C(O)CCSCCC(=O)O`, the inhibition is inactive: 2.26%. The same measure for `O=C(c1cc2cc(Br)ccc2o1)N1CCCCC1`: inactive: -7.99%. On to `CO[C@@]1(NC(=O)Cc2cccs2)C(=O)N2C(C(=O)O)=C(COC(N)=O)CS[C@@H]21`, for which the inhibition is inactive: 10.2%. As for `O=C(c1ccco1)N(CCC(c1ccccc1)c1ccco1)Cc1ccco1` (stereo not drawn), the inhibition is active: 58.6%. Consider `CC(C)Oc1ccc(C(CC(=O)O)c2ccc(F)cc2)cc1` (stereo not drawn), for which the inhibition was inactive: -6.54%. To `COCCn1c(SCCOc2ccccc2)nc2ccccc2c1=O` belongs inactive: -6.17%; to `CC[N+]1(C)CC2CCC(C)(C1)C2(C)C` (stereo not drawn), inactive: 4.08%. As to `CC(C)(C)OC(=O)N1CCCC1C(=O)NC(Cc1ccccc1)C(=O)O` (stereo not drawn) (Boc-Pro-Phe-OH; configuration not given here), the inhibition is inactive: -6.93%.

`CC(CCc1ccccc1)NC(=O)/C=C/c1ccccc1` (stereo not drawn): the inhibition was inactive: 0.97%. Consider `COc1cc(Cc2cnc(N)nc2N)cc(OC)c1OC`, for which the inhibition was inactive: -7.05% and inactive: -2.82%.

The values are drawn from PubChem BioAssay AID493035 (The Scripps Research Institute Molecular Screening Center, 2011).
